According to the supplement of paper PMC11876631:
± gives the standard deviation of the averaged measurements. Laboratory Escherichia coli strains with one amino-acid change in an essential protein, pooled on minimal glucose agar with carbenicillin or gentamicin at twice the control MIC (plus kanamycin and chloramphenicol for the plasmids), 48 h. Fold change of barcode share against drug-free plates; higher = less susceptible. Active = above 20 in both replicates (the paper's putatively resistant). '<' = one read or none on drug, '>' = one read or none on a drug-free plate. Shares are relative, so most strains fall below 1 when a few take over. Listed are strains with at least 15 reads on both drug-free plates, and hits; most hits rest on fewer reference reads. Replicate rank correlation about 0.5. Edits are read from barcodes.

B1: hisC; numbered along this chain (parent)
chain: MSTVTITDLARENVRNLTPYQSARRLGGNGDVWLNANEYPTAVEFQLTQQTLNRYPECQPKAVIENYAQYAGVKPEQVLVSRGADEGIELLIRAFCEPGKDAILYCPPTYGMYSVSAETIGVECRTVPTLDNWQLDLQGISDKLDGVKVVYVCSPNNPTGQLINPQDFRTLLELTRGKAIVVADEAYIEFCPQASLAGWLAEYPHLAILRTLSKAFALAGLRCGFTLANEEVINLLMKVIAPYPLSTPVADIAAQALSPQGIVAMRERVAQIIAEREYLIAALKEIPCVEQVFDSETNYILARFKASSAVFKSLWDQGIILRDQNKQPSLSGCLRITVGTREESQRVIDALRAEQV
B2: glnA; numbered along this chain (parent)
chain: MSAEHVLTMLNEHEVKFVDLRFTDTKGKEQHVTIPAHQVNAEFFEEGKMFDGSSIGGWKGINESDMVLMPDASTAVIDPFFADSTLIIRCDILEPGTLQGYDRDPRSIAKRAEDYLRSTGIADTVLFGPEPEFFLFDDIRFGSSISGSHVAIDDIEGAWNSSTQYEGGNKGHRPAVKGGYFPVPPVDSAQDIRSEMCLVMEQMGLVVEAHHHEVATAGQNEVATRFNTMTKKADEIQIYKYVVHNVAHRFGKTATFMPKPMFGDNGSGMHCHMSLSKNGVNLFAGDKYAGLSEQALYYIGGVIKHAKAINALANPTTNSYKRLVPGYEAPVMLAYSARNRSASIRIPVVSSPKARRIEVRFPDPAANPYLCFAALLMAGLDGIKNKIHPGEAMDKNLYDLPPEEAKEIPQVAGSLEEALNELDLDREFLKAGGVFTDEAIDAYIALRREEDDRVRMTPHPVEFELYYSV
B3: lptF; a variant is named by its letters at X, in order (parent)
chain: MIIIRYLVRETLKSQLAILFILLLIFFCQKLVRILGAAVDGDIPANLVLSLLGLGVPEMAQLILPLSLFLGXLMTLGKLYTESEITVMHACGLSKAVLVKAAMILAVFTAIVAAVNVMWAGPWSSRHQDEVLAEAKANPGMAALAQGQFQQATNGSSVLFIESVDGSDFKDVFLAQIRPKGNARPSVVVADSGHLTQLRDGSQVVTLNQGTRFEGTALLRDFRITDFQDYQAIIGHQAVALDPNDTDQMDMRTLWNTDTDRARAELNWRITLVFTXFXXALXXXPLSVVNPRQGRVLSMLPAMLLYLLFFLIQTSLKSNGGKGKLDPTLWMWTVNLIYLALAIVLNLWDTVPVRRLRASFSRKGAV

Variants of: B1
Experiment: barcode share on antibiotic plates over drug-free plates; higher = less susceptible
Details: with Escherichia coli (laboratory strain); antibiotic: carbenicillin; 2× MIC (3.1 µg/mL)
Experimental: (§1)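 A pool of E. coli strains, each edited to carry one amino-acid change in an essential protein, was grown for 48 h on minimal glucose agar with or without antibiotic; strain barcodes were sequenced; mean of two replicates.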

Row | Variant | fold change of barcode share
1 | I336Q | 0.318 ± 0.061
2 | I336P | 0.379 ± 0.19
3 | I336W | 0.454 ± 0.16
4 | I336A | 0.776 ± 0.23
5 | I103W | 1.72 ± 0.76
6 | I103D | 0.581 ± 0.16
7 | L334W | 0.41 ± 0.061
8 | L334Q | 0.317 ± 0.018
9 | L334A | 0.502 ± 0.05

Same assay, conditions: with Escherichia coli (laboratory strain); antibiotic: gentamicin; 2× MIC (MIC 0.45 µg/mL)

Row | Variant | fold change of barcode share
10 | I336Q | < 0.0129
11 | I336P | 0.027 ± 0.022
12 | I336W | < 0.0119
13 | I336A | < 0.0164
14 | I103W | 0.0414 ± 0.035
15 | I103D | 0.0726 ± 0.08
16 | L334W | < 0.0119
17 | L334Q | < 0.014

Variants of: B2
Experiment: as above
Details: with Escherichia coli (laboratory strain); antibiotic: carbenicillin; 2× MIC (3.1 µg/mL)
Experimental: as §1

Row | Variant | fold change of barcode share
18 | M332W | 0.433 ± 0.07
19 | M332A | 0.367 ± 0.08
20 | L376A | 0.449 ± 0.0095
21 | L375A | 0.511 ± 0.038

Same assay, conditions: with Escherichia coli (laboratory strain); antibiotic: gentamicin; 2× MIC (MIC 0.45 µg/mL)

Row | Variant | fold change of barcode share
22 | M332W | 0.00317 ± 0.0025
23 | M332A | 0.0156 ± 0.019
24 | L376A | < 0.00445
25 | L376P | < 0.0143

Variants of: B3
Experiment: as above
Details: with Escherichia coli (laboratory strain); antibiotic: carbenicillin; 2× MIC (3.1 µg/mL)
Experimental: as §1

Row | Variant | fold change of barcode share
26 | LVMMMAV | 0.218 ± 0.032
27 | LVMQMVV | 0.242 ± 0.013
28 | LVWMMVV | 0.273 ± 0.036
29 | LAMMMVV | 0.284 ± 0.12
30 | LVMMQVV | 0.313 ± 0.018
31 | LVMMMVA | 0.287 ± 0.073
32 | LVMMMVW | 0.26 ± 0.012
33 | LVPMMVV | 0.166 ± 0.027
34 | LVMMMQV | 0.377 ± 0.058
35 | LVMPMVV | 0.267 ± 0.052
36 | PVMMMVV | 0.346 ± 0.11
37 | LVMMMPV | 0.252 ± 0.18
38 | LVMDMVV | 0.463 ± 0.16
39 | LVQMMVV | 0.14 ± 0.015

Same assay, conditions: with Escherichia coli (laboratory strain); antibiotic: gentamicin; 2× MIC (MIC 0.45 µg/mL)

Row | Variant | fold change of barcode share
40 | LVMMMAV | < 0.0208
41 | LVMQMVV | < 0.00331
42 | LVWMMVV | < 0.00656
43 | LAMMMVV | < 0.00579
44 | LVMMQVV | < 0.00887
45 | LVMMMVD | < 0.00928
46 | LVMMMVA | < 0.00961
47 | LVMMMVP | < 0.0123
48 | LVMMMVQ | < 0.0102
49 | LVMMMVW | < 0.014
50 | LVPMMVV | 0.0143 ± 0.014
51 | LVMMMQV | < 0.00914
52 | LVMPMVV | 0.0105 ± 0.01
53 | PVMMMVV | < 0.0132
54 | LVMMMPV | < 0.0108
55 | LVMDMVV | 0.00883 ± 0.002
56 | LVQMMVV | < 0.00404
